Laboratory results as given in article PMC11007909.
No constants are given. Whether binding was seen depends on the method and setting. In cells and extracts the contact can be indirect. Some binding calls cover weakened binding; strength is not graded here. For some of these results: Tags and fused reporters may be left off the sequences shown.

Chains of the proteins cited; added tags and fusions are not shown. Residues count along the entry.
UniProt O94973: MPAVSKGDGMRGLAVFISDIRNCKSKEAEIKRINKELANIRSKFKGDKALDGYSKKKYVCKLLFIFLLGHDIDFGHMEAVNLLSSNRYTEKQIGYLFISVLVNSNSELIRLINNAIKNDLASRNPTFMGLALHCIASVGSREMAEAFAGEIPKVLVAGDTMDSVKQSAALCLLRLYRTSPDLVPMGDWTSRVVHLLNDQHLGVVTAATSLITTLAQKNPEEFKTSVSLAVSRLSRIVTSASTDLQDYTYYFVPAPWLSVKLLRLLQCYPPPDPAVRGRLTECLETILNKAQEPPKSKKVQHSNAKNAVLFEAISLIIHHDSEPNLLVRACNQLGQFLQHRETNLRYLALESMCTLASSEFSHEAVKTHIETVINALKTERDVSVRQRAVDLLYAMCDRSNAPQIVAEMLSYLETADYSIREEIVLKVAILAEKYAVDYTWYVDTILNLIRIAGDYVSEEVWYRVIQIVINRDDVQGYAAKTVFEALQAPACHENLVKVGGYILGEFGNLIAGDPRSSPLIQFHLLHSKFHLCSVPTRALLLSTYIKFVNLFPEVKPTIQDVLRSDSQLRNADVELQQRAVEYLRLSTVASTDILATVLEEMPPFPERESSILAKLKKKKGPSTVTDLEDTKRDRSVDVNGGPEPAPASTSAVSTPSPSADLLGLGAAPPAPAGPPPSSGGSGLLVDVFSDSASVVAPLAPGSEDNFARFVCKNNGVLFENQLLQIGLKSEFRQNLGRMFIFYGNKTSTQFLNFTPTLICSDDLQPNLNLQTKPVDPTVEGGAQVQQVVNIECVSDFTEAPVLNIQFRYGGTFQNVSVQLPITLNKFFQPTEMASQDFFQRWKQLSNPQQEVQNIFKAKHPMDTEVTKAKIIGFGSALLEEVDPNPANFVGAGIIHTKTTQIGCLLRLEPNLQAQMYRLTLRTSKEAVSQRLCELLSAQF
UniProt P11362, residues 22-822: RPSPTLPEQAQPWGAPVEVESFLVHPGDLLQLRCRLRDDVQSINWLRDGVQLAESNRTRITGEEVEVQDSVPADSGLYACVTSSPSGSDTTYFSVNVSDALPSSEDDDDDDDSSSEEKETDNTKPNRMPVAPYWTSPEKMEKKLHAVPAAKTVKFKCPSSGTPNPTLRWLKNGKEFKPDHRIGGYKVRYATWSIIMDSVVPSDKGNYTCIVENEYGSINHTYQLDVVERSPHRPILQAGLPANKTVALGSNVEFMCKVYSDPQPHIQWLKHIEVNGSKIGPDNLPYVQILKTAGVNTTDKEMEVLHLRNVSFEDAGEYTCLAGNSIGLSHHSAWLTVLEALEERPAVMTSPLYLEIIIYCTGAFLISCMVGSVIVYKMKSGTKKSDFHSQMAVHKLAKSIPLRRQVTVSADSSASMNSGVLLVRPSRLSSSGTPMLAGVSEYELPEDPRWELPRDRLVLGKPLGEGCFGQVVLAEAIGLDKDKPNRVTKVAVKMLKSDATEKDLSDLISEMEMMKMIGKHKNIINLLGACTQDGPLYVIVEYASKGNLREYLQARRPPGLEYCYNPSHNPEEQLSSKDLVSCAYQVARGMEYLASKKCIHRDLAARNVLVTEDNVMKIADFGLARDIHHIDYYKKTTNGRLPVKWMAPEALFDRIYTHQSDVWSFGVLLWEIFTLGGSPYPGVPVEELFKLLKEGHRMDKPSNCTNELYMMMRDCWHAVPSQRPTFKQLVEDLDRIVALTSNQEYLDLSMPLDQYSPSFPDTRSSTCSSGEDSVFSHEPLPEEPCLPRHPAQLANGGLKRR
UniProt P35968, residues 20-1356: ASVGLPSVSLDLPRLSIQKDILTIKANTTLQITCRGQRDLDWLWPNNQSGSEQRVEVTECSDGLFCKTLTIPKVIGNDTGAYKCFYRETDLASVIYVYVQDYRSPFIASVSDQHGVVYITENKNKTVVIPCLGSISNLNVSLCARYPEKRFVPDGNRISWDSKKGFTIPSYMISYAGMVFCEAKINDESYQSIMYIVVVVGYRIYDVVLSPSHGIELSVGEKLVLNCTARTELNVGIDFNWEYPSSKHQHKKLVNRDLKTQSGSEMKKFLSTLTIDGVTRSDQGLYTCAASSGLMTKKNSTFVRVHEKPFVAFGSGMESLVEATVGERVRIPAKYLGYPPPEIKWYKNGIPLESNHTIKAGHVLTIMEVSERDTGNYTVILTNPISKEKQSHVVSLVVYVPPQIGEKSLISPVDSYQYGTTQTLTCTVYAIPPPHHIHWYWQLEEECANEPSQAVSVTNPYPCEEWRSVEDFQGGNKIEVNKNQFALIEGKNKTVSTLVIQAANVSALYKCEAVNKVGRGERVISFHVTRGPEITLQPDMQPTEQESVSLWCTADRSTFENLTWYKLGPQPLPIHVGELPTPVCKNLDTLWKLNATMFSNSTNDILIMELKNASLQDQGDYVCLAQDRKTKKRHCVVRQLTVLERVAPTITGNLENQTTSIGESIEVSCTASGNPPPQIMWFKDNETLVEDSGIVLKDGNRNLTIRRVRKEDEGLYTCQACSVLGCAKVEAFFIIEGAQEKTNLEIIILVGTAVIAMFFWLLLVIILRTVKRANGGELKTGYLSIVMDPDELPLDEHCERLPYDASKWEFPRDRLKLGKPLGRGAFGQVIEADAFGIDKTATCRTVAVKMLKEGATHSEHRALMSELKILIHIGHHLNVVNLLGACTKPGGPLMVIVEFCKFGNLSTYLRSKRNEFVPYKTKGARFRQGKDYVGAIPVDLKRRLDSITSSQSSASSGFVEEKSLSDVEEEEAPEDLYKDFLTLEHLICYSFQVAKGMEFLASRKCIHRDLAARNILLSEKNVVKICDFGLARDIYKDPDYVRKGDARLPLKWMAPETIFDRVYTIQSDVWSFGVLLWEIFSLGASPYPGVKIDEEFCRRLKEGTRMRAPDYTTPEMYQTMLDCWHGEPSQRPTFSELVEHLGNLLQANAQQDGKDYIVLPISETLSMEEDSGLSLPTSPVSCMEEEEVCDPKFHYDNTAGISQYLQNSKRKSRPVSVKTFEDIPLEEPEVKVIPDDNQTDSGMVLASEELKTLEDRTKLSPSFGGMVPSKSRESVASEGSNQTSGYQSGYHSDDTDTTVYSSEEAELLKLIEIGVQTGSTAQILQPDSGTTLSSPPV
UniProt P63010: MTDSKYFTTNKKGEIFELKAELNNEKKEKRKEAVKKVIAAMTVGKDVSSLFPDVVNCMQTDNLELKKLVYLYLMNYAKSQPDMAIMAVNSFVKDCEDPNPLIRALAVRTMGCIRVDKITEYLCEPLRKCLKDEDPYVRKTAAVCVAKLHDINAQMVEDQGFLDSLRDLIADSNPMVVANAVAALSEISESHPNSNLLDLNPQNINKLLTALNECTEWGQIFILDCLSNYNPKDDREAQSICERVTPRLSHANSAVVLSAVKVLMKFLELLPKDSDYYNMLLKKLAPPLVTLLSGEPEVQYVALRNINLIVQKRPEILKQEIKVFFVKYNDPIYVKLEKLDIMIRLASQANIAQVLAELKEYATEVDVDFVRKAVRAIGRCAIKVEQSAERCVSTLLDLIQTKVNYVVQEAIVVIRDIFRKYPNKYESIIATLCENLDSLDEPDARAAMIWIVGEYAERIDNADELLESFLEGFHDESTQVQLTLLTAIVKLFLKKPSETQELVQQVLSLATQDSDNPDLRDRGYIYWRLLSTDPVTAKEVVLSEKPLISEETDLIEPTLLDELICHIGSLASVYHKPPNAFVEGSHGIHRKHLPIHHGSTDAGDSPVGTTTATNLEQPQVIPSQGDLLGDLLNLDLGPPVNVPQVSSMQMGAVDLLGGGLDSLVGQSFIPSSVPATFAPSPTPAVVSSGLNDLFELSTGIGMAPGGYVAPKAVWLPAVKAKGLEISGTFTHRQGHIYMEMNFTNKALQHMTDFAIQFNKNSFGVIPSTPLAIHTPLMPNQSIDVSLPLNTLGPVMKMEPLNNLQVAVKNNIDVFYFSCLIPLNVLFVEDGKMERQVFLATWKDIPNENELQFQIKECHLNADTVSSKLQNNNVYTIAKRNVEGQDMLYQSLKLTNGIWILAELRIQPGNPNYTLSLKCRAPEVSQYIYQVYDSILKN
UniProt P17948, residues 27-1338: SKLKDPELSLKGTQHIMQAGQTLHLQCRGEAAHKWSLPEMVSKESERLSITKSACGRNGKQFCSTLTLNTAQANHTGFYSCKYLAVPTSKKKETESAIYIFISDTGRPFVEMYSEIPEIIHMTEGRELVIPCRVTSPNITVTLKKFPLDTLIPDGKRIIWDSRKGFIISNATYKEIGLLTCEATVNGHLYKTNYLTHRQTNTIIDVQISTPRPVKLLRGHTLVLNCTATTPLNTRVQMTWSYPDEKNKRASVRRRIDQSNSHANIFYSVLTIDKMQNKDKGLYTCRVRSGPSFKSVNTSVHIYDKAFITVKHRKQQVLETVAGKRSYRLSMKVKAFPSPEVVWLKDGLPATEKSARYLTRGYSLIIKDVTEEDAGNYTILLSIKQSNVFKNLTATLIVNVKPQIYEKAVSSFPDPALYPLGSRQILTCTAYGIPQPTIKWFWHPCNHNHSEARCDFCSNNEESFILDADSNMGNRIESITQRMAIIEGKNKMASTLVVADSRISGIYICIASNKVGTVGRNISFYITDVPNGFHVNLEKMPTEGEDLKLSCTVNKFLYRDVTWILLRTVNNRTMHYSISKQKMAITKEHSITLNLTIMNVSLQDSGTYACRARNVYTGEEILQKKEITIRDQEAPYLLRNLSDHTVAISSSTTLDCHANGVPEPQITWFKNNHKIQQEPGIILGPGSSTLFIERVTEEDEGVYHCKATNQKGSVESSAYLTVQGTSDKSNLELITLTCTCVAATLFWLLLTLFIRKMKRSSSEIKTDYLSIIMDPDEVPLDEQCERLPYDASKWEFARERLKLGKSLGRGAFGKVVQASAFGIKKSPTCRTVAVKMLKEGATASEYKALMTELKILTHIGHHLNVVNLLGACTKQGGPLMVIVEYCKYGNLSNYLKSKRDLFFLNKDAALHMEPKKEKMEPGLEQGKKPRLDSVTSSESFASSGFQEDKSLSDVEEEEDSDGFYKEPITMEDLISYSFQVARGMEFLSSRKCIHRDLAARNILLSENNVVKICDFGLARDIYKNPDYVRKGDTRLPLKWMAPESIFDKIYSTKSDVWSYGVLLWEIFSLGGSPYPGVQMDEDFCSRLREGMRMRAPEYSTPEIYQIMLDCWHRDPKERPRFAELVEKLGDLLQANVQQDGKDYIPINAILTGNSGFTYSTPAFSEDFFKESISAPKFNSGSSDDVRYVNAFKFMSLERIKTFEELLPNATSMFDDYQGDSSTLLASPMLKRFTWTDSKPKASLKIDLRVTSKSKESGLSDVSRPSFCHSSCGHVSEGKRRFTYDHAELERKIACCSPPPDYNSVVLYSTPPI

B1: Endomucin (protein, UniProt Q9ULC0 19-261)
chain: NSTGVLEAANNSLVVTTTKPSITTPNTESLQKNVVTPTTGTTPKGTITNELLKMSLMSTATFLTSKDEGLKATTTDVRKNDSIISNVTVTSVTLPNAVSTLQSSKPKTETQSSIKTTEIPGSVLQPDASPSKTGTLTSIPVTIPENTSQSQVIGTEGGKNASTSATSRSYSSIILPVVIALIVITLSVFVLVGLYRMCWKADPGTPENGNDQPQSDKESVKLLTVKTISHESGEHSAQGKTKN

What was measured:
[1] = molecular target: T1, myc-tagged human EMCN (human) (UniProt Q9ULC0); test: co-IP; HRECs overexpressing myc-tagged EMCN (AdEMCN-myc) lysed; mouse anti-Myc antibody or mouse IgG overnight at 4 °C, protein A/G beads, PBST and PBS washes; Western blot
T1 sequence: B1 chain

[2] = molecular target: T2, Endomucin (human (endogenous in HRECs)) (UniProt Q9ULC0); test: co-IP; immunoprecipitation and Western blot validating EMCN with AP2A2 (Fig. 1E); which protein was precipitated is not told
T2 sequence: B1 chain

[3] = molecular target: AP2A2 subunit of the AP2 adaptor complex (human (endogenous in HRECs)) (UniProt O94973); test: co-IP; HRECs treated with non-targeting siRNA (siNT) lysed; VEGFR2 co-immunoprecipitated with AP2A2; Western blot (Fig. 3G)

| Molecule | binding [1] | binding [2] | binding [3] |
| --- | --- | --- | --- |
| Fibroblast growth factor receptor 1 (from UniProt P11362 22-822) | no binding |  |  |
| AP2A2 subunit of the AP2 adaptor complex (from UniProt O94973 1-939) | binds | binds |  |
| Vascular endothelial growth factor receptor 2 (from UniProt P35968 20-1356) | binds |  |  |
| AP2β, β subunit of the AP2 adaptor complex (from UniProt P63010 1-937) | binds |  |  |
| Vascular endothelial growth factor receptor 1 (from UniProt P17948 27-1338) | no binding |  |  |
| B1 |  |  | binds |
